Assay results taken from PMC6212790.
The other results are listed elsewhere or left out. At the low end of the ranking the order means little.

What follows are sequences tested against T1, GST-Rok-C97-191 (UniProt O34857) (assay: protein binding microarray). Conditions: Rok is a gene silencer of Bacillus subtilis; high values mean tight binding; most listed sequences are background and not binding sites; double strand, one strand shown.
T1 sequence: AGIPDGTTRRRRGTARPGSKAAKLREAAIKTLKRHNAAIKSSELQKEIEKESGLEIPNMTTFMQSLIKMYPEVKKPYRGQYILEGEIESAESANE
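Also: rank score from −0.5 (least bound) to 0.5 (best bound).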

| Sequence | binding signal |
| --- | --- |
| CCCTCGTA | -0.15 E-score |
| CTAGTCGA | 0.131 E-score |
| AAGAAAAG | 0.0235 E-score |
| CGCTCCGA | -0.146 E-score |
| AATTCGAT | 0.215 E-score |
| AACGGTAT | 0.228 E-score |
| CATGCCCG | -0.336 E-score |
| AGGTTCGC | -0.176 E-score |
| TCAGTGAA | -0.229 E-score |
| ACACAGGT | -1.45e-06 E-score |
| CCGTGGGC | -0.251 E-score |
| CTGGGTAC | -0.0998 E-score |
| GATTTTAC | 0.226 E-score |
| AGAGTTCG | -0.129 E-score |
| AGTAGAAG | 0.276 E-score |
| GCTCAGAA | -0.0988 E-score |
| ACAACTAA | 0.136 E-score |
| ACTTGCAG | 0.0435 E-score |
| ACCCCGTA | -0.101 E-score |
| CTCCACCC | -0.221 E-score |
| CACCCACC | -0.147 E-score |
| AGTCTAGC | 0.0122 E-score |
| CCGTAGCG | -0.0263 E-score |
| GATAGAGC | -0.0336 E-score |
| ACGACAAT | 0.132 E-score |

| Sequence | binding signal |
| --- | --- |
| AGGCCTCA | -0.23 E-score |
| CTCTTAGA | -0.0403 E-score |
| AGCCACAC | -0.246 E-score |
| GATGATCA | 0.0879 E-score |
| AGTGCGCC | -0.0742 E-score |
| CCCGATTC | -0.316 E-score |
| GAATGAAA | 0.01 E-score |
| CCCCCTTC | -0.396 E-score |
| GGCAAACA | -0.0846 E-score |
| CAGACTCA | -0.229 E-score |
| ACCGACTC | -0.0597 E-score |
| CACTGATA | -0.0443 E-score |
| AAGTTCGT | -0.0647 E-score |
| TAGCACTA | 0.191 E-score |
| CAAAGGTG | -0.221 E-score |
| ACATTCCA | 0.0235 E-score |
| ACAATAAT | 0.251 E-score |
| AGTGCAAC | -0.215 E-score |
| ATTCGTCC | -0.11 E-score |
| GGCTACCA | -0.0181 E-score |
| AAACTCTG | 0.0882 E-score |
| CTTCCATA | -0.0121 E-score |
| CGATTAAA | 0.119 E-score |
| ACTGGTGA | -0.0162 E-score |
| ACATGCCA | -0.0276 E-score |

| Sequence | binding signal |
| --- | --- |
| CCTCCTAA | -0.0537 E-score |
| GCACTCCC | -0.276 E-score |
| GGGCATAA | -0.109 E-score |
| CTTCGAAA | -0.113 E-score |
| ATTAATGC | 0.154 E-score |
| AGGGACCG | -0.299 E-score |
| TTGAGCAA | 0.035 E-score |
| ATTCGCAG | -0.0515 E-score |
| CATTCGGA | 0.0299 E-score |
| CACGTTTA | -0.0745 E-score |
| AGGTGTTG | 0.0432 E-score |
| ACCTATCT | 0.293 E-score |
| CAGCCAGA | -0.104 E-score |
| CCTTGGAG | -0.145 E-score |
| AGTACACC | 0.0138 E-score |
| ATCGGTTA | 0.0215 E-score |
| AGTCCTCC | -0.0852 E-score |
| ACAACTCA | 0.0783 E-score |
| ATAACACG | 0.11 E-score |
| GAATTCGA | 0.192 E-score |
| TAACCACA | -0.00749 E-score |
| CTGAGCAG | -0.243 E-score |
| TAACTCCA | 0.0761 E-score |
| CAAACTAA | 0.374 E-score |
| ACAGGCAC | -0.0537 E-score |

| Sequence | binding signal |
| --- | --- |
| CCTACTGC | -0.027 E-score |
| ACTCGAGC | -0.03 E-score |
| ATGAGCCA | -0.0549 E-score |
| CCAAATTA | 0.324 E-score |
| ATAGACCC | -0.12 E-score |
| GCTTCCTA | -0.071 E-score |
| ATATTGAG | 0.155 E-score |
| CGGGCCAA | -0.193 E-score |
| CTGTATAC | 0.172 E-score |
| CCTCCCGA | -0.0654 E-score |
| GAGTAGAC | -0.107 E-score |
| AGGGGGCA | -0.249 E-score |
| AAGCACGC | -0.101 E-score |
| CTGTGAAA | -0.0748 E-score |
| CGTGTGGC | -0.156 E-score |
| CGGATTAA | 0.0741 E-score |
| CTTTCCCA | -0.31 E-score |
| CTTATTTC | 0.221 E-score |
| CAGAAGCC | -0.158 E-score |
| AACATTCG | 0.0387 E-score |
| ATCCTCTA | 0.0855 E-score |
| TAATATCA | 0.282 E-score |
| ACAAGGGC | -0.198 E-score |
| CATACTCA | 0.0499 E-score |
| GTCCCGAA | -0.314 E-score |

| Sequence | binding signal |
| --- | --- |
| CACCCAGC | -0.118 E-score |
| GCTACCAC | 0.0411 E-score |
| AGGCAATG | -0.142 E-score |
| ACGCCTTG | -0.338 E-score |
| CCCTATCC | -0.154 E-score |
| ACTGTCCG | -0.0981 E-score |
| GTATCCCA | 0.0935 E-score |
| CACTACCC | -0.0292 E-score |
| CTAAGTAC | 0.245 E-score |
| CGAATGCG | -0.135 E-score |
| CAATCACC | -0.0486 E-score |
| GGAGTCCC | -0.039 E-score |
| ACAGTGAG | -0.0372 E-score |
| CCGAAGAC | -0.137 E-score |
| ACATTGGC | -0.0629 E-score |
| CAGGGATA | -0.133 E-score |
| CCGGAGAG | -0.244 E-score |
| AAGACATC | -0.0409 E-score |
| TGAACAAA | -0.124 E-score |
| AGGCCCAG | -0.0838 E-score |
| TCTTAAGA | 0.0975 E-score |
| CCTCCTCG | -0.258 E-score |
| ATGACGTG | -0.113 E-score |
| GCCCGGGC | -0.409 E-score |
| ATATGACC | 0.15 E-score |

| Sequence | binding signal |
| --- | --- |
| AATCCATG | -0.019 E-score |
| AGGGTTGG | -0.162 E-score |
| CACAGACG | -0.0542 E-score |
| ACTTATGG | 0.011 E-score |
| GCGTGGCC | -0.278 E-score |
| TCAAGGAA | -0.0876 E-score |
| CAGTCCGC | -0.361 E-score |
| GCTTAGGA | -0.0674 E-score |
| ATTAATAA | 0.234 E-score |
| AACGCTCA | 0.0171 E-score |
| GTAACCGA | -0.0498 E-score |
| GTTCTTAA | 0.193 E-score |
| CGGTCAAC | -0.0555 E-score |
| CCTACCCA | -0.17 E-score |
| TCGCGCCA | -0.126 E-score |
| ACTGATAA | 0.287 E-score |
| ACTTTTAC | 0.218 E-score |
| CTAATAGC | 0.294 E-score |
| CCGGTTCC | -0.144 E-score |
| CTCGTTGA | -0.00076 E-score |
| ACTATACC | 0.21 E-score |
| AAAACACC | 0.111 E-score |
| ATCAGAAT | 0.064 E-score |
| ATACACAA | 0.0784 E-score |
| AGCATACG | -0.0107 E-score |

| Sequence | binding signal |
| --- | --- |
| GTTGCGTA | -0.0822 E-score |
| AATGACAG | -0.102 E-score |
| CGGATATC | 0.0392 E-score |
| ACACCTGA | -0.0165 E-score |
| TTACAGAA | 0.16 E-score |
| TATCAAGA | 0.0331 E-score |
| AGACTCGC | -0.123 E-score |
| CGAGTGTA | 0.097 E-score |
| AAACAATC | 0.0266 E-score |
| GCGACTAC | 0.0895 E-score |
| AGGCAGGA | 0.0634 E-score |
| GCCGATAC | -0.0184 E-score |
| AAGACTTC | -0.0221 E-score |
| AAGCCGGC | -0.114 E-score |
| ATTTGTAC | 0.333 E-score |
| TGACCGCA | -0.102 E-score |
| CACGATCG | -0.0966 E-score |
| TGGTAGAA | 0.468 E-score |
| AAGAAGAG | -0.15 E-score |
| CCTATTAG | 0.16 E-score |
| CCCGCTGC | -0.284 E-score |
| ATTTGCCC | -0.0766 E-score |
